# In PubChem BioAssay AID504333 (National Center for Advancing Translational Sciences (NCATS), 2011):
# About 16,000 (4.4%) of roughly 360,000 compounds were called active. The inconclusive results got no clear call from the source; some entries with a clear call stand among them for comparison. The call rests on the fitted dose curve; in most records, active means well fitted inhibition curve with a large enough effect; inconclusive means small, poorly fitted or top-dose-only effect; inactive means no such curve, though single readings can be large or run the other way. Where the call is inconclusive, the potency comes from a doubtful curve fit.
# Target: Bromodomain adjacent to zinc finger domain protein 2B (Homo sapiens) (UniProt Q9UIF8)
# Experiment: qHTS Assay for Inhibitors of BAZ2B; further: nearly all actives have a fitted effect of over 60% in size
# Conditions: AlphaScreen BAZ2B-H3K14Ac peptide displacement; activity change, negative = inhibition: at 114 µM (top of the series)
# Method in brief: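 BAZ2B 50 nM plus b-H3(5-23)K14Ac 50 nM, PBS pH 7.4/0.01% Tween-20, 30 min RT; compound added (max 110 uM), 30 min RT; streptavidin donor/Ni-chelate acceptor beads 10 ug/mL final, 20 min dark; AlphaScreen read.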
# On the % scale 0 is the no-effect control and ±100 the full control effect; potency means the concentration at half of the fitted maximal effect; tags describe the fitted curve by direction and shape.
# Sequence of UniProt Q9UIF8 (Q9UIF8 whole entry, looked up, the tested form may be a part): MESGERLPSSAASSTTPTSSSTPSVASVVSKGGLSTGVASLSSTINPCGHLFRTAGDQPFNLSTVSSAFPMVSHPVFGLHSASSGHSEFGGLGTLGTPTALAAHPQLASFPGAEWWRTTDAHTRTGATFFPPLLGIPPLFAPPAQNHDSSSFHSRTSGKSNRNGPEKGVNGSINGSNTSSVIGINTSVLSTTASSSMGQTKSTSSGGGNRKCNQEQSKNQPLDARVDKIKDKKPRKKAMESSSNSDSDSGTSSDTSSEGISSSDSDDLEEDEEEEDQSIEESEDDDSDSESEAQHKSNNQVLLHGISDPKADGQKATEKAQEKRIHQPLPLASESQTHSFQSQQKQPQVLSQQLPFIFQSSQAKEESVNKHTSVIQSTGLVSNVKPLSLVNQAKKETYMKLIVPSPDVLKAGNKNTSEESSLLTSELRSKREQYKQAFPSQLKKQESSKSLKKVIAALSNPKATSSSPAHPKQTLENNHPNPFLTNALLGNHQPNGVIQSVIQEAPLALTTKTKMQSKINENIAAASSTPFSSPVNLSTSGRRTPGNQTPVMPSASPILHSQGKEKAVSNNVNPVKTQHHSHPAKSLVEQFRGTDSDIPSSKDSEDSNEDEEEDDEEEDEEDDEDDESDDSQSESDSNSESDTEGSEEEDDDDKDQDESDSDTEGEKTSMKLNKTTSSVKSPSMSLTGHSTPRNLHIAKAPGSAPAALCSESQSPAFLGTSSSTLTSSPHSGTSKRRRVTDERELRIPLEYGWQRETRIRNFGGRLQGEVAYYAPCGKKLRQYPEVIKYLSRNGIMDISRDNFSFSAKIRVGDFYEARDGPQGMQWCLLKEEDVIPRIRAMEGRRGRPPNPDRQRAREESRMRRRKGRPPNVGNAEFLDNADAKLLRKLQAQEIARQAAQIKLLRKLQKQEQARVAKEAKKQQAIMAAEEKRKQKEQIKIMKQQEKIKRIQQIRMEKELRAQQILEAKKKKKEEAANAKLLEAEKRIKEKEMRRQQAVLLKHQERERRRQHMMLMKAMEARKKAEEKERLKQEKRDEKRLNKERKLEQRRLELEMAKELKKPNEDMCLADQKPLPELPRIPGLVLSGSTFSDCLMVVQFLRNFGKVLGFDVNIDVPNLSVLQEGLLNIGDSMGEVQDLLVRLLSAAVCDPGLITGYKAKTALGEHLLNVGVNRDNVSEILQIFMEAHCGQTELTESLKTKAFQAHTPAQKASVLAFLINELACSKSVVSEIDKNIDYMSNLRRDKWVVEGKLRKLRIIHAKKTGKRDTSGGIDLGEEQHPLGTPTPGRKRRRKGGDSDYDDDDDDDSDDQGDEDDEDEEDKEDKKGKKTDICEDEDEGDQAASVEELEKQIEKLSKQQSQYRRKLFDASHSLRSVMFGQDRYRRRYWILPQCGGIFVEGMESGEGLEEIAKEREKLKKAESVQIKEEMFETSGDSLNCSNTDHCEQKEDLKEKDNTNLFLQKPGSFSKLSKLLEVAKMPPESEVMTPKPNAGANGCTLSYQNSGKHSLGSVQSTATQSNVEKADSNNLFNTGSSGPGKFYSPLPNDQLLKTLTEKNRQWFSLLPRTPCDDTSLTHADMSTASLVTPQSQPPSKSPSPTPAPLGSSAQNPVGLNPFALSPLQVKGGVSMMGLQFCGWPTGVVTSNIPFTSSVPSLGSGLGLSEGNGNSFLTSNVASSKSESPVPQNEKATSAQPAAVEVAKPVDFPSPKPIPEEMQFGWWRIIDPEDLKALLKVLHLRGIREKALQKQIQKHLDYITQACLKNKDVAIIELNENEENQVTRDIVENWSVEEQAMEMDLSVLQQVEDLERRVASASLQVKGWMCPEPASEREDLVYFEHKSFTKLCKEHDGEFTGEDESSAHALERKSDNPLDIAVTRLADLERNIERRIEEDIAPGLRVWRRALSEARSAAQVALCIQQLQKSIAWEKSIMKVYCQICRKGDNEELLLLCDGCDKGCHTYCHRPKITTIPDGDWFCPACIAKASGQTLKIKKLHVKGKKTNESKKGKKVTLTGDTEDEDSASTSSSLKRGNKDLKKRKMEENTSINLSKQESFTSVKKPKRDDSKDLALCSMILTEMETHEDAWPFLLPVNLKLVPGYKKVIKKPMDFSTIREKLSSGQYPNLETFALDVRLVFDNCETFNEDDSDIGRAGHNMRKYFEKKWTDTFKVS
Compound,"activity change, negative = inhibition",Potency
CC1CCCCN1CCCNc1ccc(C(CC(N)=O)NC(=O)Cc2cccc3ccccc23)cc1[N+](=O)[O-] (stereo not given),inactive: -10.1%,
CC(=O)c1ccc(NC(=S)Nc2cccc3ccccc23)cc1,,"inconclusive: 79.4 µM [inhibitor, single point]"
CCOc1cc(CNc2ccc(S(N)(=O)=O)cc2)ccc1OCC(=O)NC(C)(C)C,,"inconclusive: 89.1 µM [inhibitor, partial curve, poor fit]"
Cc1ccc(NC(=O)c2nc[nH]c2C(=O)N2CCN(c3ccccc3)CC2)cc1,,"inconclusive: 89.1 µM [inhibitor, single point]"
CC(C)CCC(C)NC(=O)C1CCN(S(=O)(=O)/C=C/c2ccccc2)CC1 (stereo not given),inactive: -16%,
O=C(NCCc1c[nH]c2ccccc12)C(=O)NCC1OCCCN1S(=O)(=O)c1ccc(F)cc1 (stereo not given),,"inconclusive: 70.8 µM [inhibitor, single point]"
CCOC(=O)c1ccc(N2N=C(C)/C(=C/C=C/c3ccco3)C2=O)cc1,,active: 6.31 µM
COc1ccc(Cl)cc1NC(=O)Cn1nnc2sc(-c3ccccc3)cc2c1=O,inactive: -25.8%,
CCc1ccccc1NC(=O)CN(C)Cc1c(O)ccc2ccccc12,,"inconclusive: 89.1 µM [inhibitor, single point]"
Oc1ccc(-c2cn3c(n2)SCC3)cc1O,,"inconclusive: 70.8 µM [inhibitor, single point]"
CCN(CC)CCNCc1ccc(-c2ccc(Cl)cc2)o1,,"inconclusive: 89.1 µM [inhibitor, single point]"
CC(C)c1ccc(S(=O)(=O)Nc2ccc(N3CCOCC3)cc2)cc1,,active: 44.7 µM
CC1CCc2nc3ccc(S(=O)(=O)N4CCC(C(=O)O)CC4)cc3c(C(=O)O)c2C1 (stereo not given),,"inconclusive: 89.1 µM [inhibitor, single point]"
O=C(Nc1ccc(C(=O)O)cc1)/C(=C\C=C\c1ccccc1)NC(=O)c1ccccc1Br,,"inconclusive: 70.8 µM [inhibitor, partial curve]"
COc1cccc(-c2cccc(NC(=O)C3CCN(C4CCOCC4)CC3)c2)c1,,"inconclusive: 79.4 µM [inhibitor, single point]"
CN(C)c1ccc(CNC(=O)c2ccc(CNc3c(N4CCCCC4)c(=O)c3=O)cc2)cc1,inactive: -8.78%,
Cc1cccc(OCc2nnc(SCCC(=O)O)n2-c2ccccc2)c1,,active: 79.4 µM
OCCN1CCN(Cc2cccc(Oc3ccc(Cl)cc3)c2)CC1,,"inconclusive: 89.1 µM [inhibitor, single point]"
N#Cc1c(N)nc2c(c1-c1cccs1)CCCC2,inactive: -3.2%,
COc1cccc(OCc2cc(C(=O)N(Cc3nccn3C)C(C)C)no2)c1,,"inconclusive: 79.4 µM [inhibitor, single point]"
O=C(CSc1nnc(N2CCCC2)n1-c1ccccc1Cl)N1CCN(c2ccccn2)CC1,inactive: 7.39%,
COc1ccc(NS(=O)(=O)c2ccc3c(c2)[C@H]2C=CC[C@H]2[C@@H](c2ccc(C(=O)O)cc2)N3)cc1,,active: 39.8 µM
Cc1ccccc1Nc1nc(CSc2nnc(-c3ccoc3C)n2C)cs1,,"inconclusive: 44.7 µM [inhibitor, partial curve]"
COc1cc(/C=C/C(=O)O)cc(Br)c1O,,"inconclusive: 89.1 µM [inhibitor, single point]"

Compound,"activity change, negative = inhibition",Potency
CCOc1ccc(CCNCc2c(C(=O)O)c(C)n(Cc3ccccc3F)c2C)cc1,,"inconclusive: 35.5 µM [inhibitor, full curve, poor fit]"
CCC(=O)Oc1ccc2c(c1)O/C(=C\c1ccco1)C2=O,,"inconclusive: 50.1 µM [inhibitor, partial curve, poor fit]"
CSc1nsc(/C=C/Nc2ccc(O)cc2C)c1C#N,,active: 39.8 µM
Fc1cccc(C[n+]2csc3ccccc32)c1,,"inconclusive: 89.1 µM [inhibitor, single point]"
S=C(Nc1ccc(Nc2ccccc2)cc1)NC1CCCCCC1,,active: 12.6 µM
O=C(c1ccc(Cl)c(S(=O)(=O)N2CCCCCC2)c1)N1CCN(c2ccccc2O)CC1,,"inconclusive: 56.2 µM [inhibitor, partial curve]"
CCOC(=O)c1c(/N=C/c2cc(C)ccc2O)sc2c1CCN(C)C2,,"inconclusive: 89.1 µM [inhibitor, single point]"
Cc1ccc(CN2CCN(c3cccc4[nH]ccc34)CC2)cc1,,"inconclusive: 50.1 µM [inhibitor, partial curve]"
Cc1ccc(-n2c(SCC(=O)OC(C)C)nnc2-c2ccccn2)cc1,,active: 50.1 µM
O=C(CCCn1cncn1)N1CCCC(N2CCN(c3ccccc3F)CC2)C1 (stereo not given),inactive: -1.84%,
CC(Sc1nc2cc([N+](=O)[O-])ccc2n1-c1ccc(F)cc1)C(=O)NCc1ccc2c(c1)OCO2 (stereo not given),,"inconclusive: 7.94 µM [inhibitor, full curve, poor fit]"
Cc1ccc(NC(=O)CCc2nc3cccnc3n2-c2ccccc2)cc1Cl,,"inconclusive: 39.8 µM [inhibitor, partial curve]"
COc1ccc(CCNC(=O)CS(=O)Cc2nc(-c3cccs3)oc2C)cc1OC (stereo not given),,"inconclusive: 89.1 µM [inhibitor, single point]"
O=C(COC(=O)c1cc(S(=O)(=O)N2CCc3ccccc3C2)ccc1Cl)NCc1ccco1,,"inconclusive: 56.2 µM [inhibitor, partial curve, poor fit]"
Cc1ccccc1Cn1c(C)c(CNCCCc2ccccc2)c(C(=O)O)c1C,inactive: -18.2%,
COc1cc(NC(=S)N2CCC(C(O)(c3ccccc3)c3ccccc3)CC2)cc(OC)c1,,"inconclusive: 44.7 µM [inhibitor, partial curve]"
O=C(/C=C/c1ccco1)NC(=S)Nc1ccc(Cl)cn1,,"inconclusive: 79.4 µM [inhibitor, single point]"
Cc1ccc(C)c(N2CCN(C(=O)c3ccc(Cn4c(=S)[nH]c5ccc(N6CCOCC6)cc5c4=O)cc3)CC2)c1,,"inconclusive: 79.4 µM [inhibitor, single point]"
Cc1ccc(C)c(N2CCN(S(=O)(=O)c3ccc4c(c3)NC(=O)CO4)CC2)c1,,"inconclusive: 70.8 µM [inhibitor, single point]"
Brc1cccc(-c2nnn3c2nc(N2CCCCC2)c2ccccc23)c1,inactive: 29.2%,
CCn1c2c(c(=O)n3ncc(C(=O)Nc4ccc(Cl)cc4C)c13)CN(Cc1ccc(OC)cc1)CC2,inactive: -21.3%,
O=C(NCc1cccs1)C1CCCN1C(=O)Nc1cccc(F)c1 (stereo not given),,"inconclusive: 89.1 µM [inhibitor, single point]"
CC1(C)Cc2ccccc2C(N/N=C/c2cccc(F)c2)=N1,inactive: -7.1% [at 57.1 µM],
CCOC(=O)N1CCN(Cc2nc(-c3cccc(Cl)c3)no2)CC1,,"inconclusive: 89.1 µM [inhibitor, single point]"

Compound,"activity change, negative = inhibition",Potency
O=[N+]([O-])c1ccc(N2CCCCC2)cc1NCCOc1ccccc1,,"inconclusive: 7.08 µM [inhibitor, full curve, poor fit]"
Cc1ccc2nc3c(c(Nc4ccc(C)c(C)c4)c2c1)CCC3,,active: 31.6 µM
O=C(CC(NCCc1ccccc1)C(=O)O)Nc1ccc(O)cc1 (stereo not given),,"inconclusive: 89.1 µM [inhibitor, single point]"
OC(COCC1COc2ccccc2O1)CN1CCN(c2ccccc2F)CC1 (stereo not given),,"inconclusive: 89.1 µM [inhibitor, single point]"
Fc1ccccc1Nc1nc(-c2ccncc2)nc2ccccc12,,"inconclusive: 100 µM [inhibitor, single point]"
CCc1ccc(CN(Cc2ccco2)C(=O)c2cc(-c3ccc(C)c(F)c3)on2)cc1,,"inconclusive: 89.1 µM [inhibitor, single point]"
Cc1cc(C(=O)CSc2nnnn2C)c(C)n1Cc1ccco1,,active: 70.8 µM
Cc1c(C(=O)O)cccc1-c1ccc(/C=N/Nc2ccc(Br)cc2)o1,,active: 50.1 µM
Cc1ccc(C)c(OCc2n[nH]c(=S)o2)c1,inactive: -14.3%,
CN(C)c1ccc(NC(=O)Cn2cc(S(=O)(=O)Cc3ccccc3Cl)c3ccccc32)cc1,,active: 25.1 µM
Cc1[nH]n(-c2ccccc2)c(=O)c1C=Nc1ccc(S(=O)(=O)Nc2nccs2)cc1,,"inconclusive: 35.5 µM [inhibitor, partial curve]"
Cc1ccc(C(=O)NC(=O)OCCn2c(C)cnc2[N+](=O)[O-])cc1,inactive: -2.3%,
O=C(NCc1ccccc1)c1cccc(OCC(=O)N2CCN(C(=O)c3ccco3)CC2)c1,,"inconclusive: 89.1 µM [inhibitor, single point]"
CCN(CC)CCN(C(=O)c1ccc2ccccc2c1)c1nc2cc3c(cc2s1)OCO3,,"inconclusive: 25.1 µM [inhibitor, partial curve]"
C=CCOc1ccc(C2=NOC(C(=O)Nc3ccc4c(c3)OCCO4)C2)cc1 (stereo not given),inactive: -7.53%,
C=CCn1c(SCc2ccc(C(=O)O)cc2)nc2sc(C)c(C)c2c1=O,inactive: -15.2%,
CCOC(=O)c1c(NC(=O)C2(C)Cc3ccccc3C(=O)O2)sc2c1CCCC2 (stereo not given),,"inconclusive: 89.1 µM [inhibitor, single point]"
O=S(=O)(c1ccccc1)N1CCC(N2CCCCCC2)CC1,,"inconclusive: 89.1 µM [inhibitor, single point]"
COCCNC(=S)N/N=C/c1ccc(N2CCOCC2)cc1,inactive: -38.5%,
O=C(CN(Cc1ccco1)C(=O)Cn1nnc(-c2ccc(F)cc2)n1)NC1CCCC1,inactive: -7.5%,
Cn1c(=O)c(Nc2ccc(O)cc2)c2c3c(cccc31)C(=O)c1ccccc1-2,,active: 6.31 µM
O=C(NCc1ccccc1)c1nc(-c2ccc(Cl)cc2)n2c1CCCCC2,,active: 12.6 µM
